Laboratory results taken from ChEMBL document CHEMBL4888484, “Replenishing the malaria drug discovery pipeline: Screening and hit evaluation of the MMV Hit Generation Library 1 (HGL1) against asexual blood stage Plasmodium falciparum ,using a nano luciferase reporter read-out” (2022).
The whole screen tested about 150,000 compounds, of which about 540 (0.36%) showed an effect of 50% or more. The list shows a part of the results.

Tested on: Plasmodium falciparum
Test: Primary screen in NF54 nanoGlo assay, in single point, at 2uM, 72h; a lower Z score goes with more inhibition
Format: functional, Erythrocyte
Conditions: timepoint 72 hour

| Structure (SMILES) | % Inhibition [%] | Z score |
| --- | --- | --- |
| O=C(Cc1ccccc1O)NC1(CN2CCN(c3ccc(F)cc3)CC2)CC1 | -4 | 0.38 |
| Cc1nn(-c2ccccc2)c(C)c1[C@H]1CC(=O)Nc2c1cnn2C | 31 | -3.47 |
| C#CCN1C(=O)C2(NC(=O)C3CCCCN32)c2ccccc21 (stereo not given) | -1 | 0.18 |
| O=C(O)CCc1cc2n(n1)CCCN(Cc1ccc(C(F)(F)F)nc1)C2 | 3 | -0.63 |
| CC(=O)Nc1cccc(Oc2c(-c3ccccc3)c3ccccc3[nH]c2=O)c1 | -5 | 0.97 |
| CO[C@@H](C)c1nc(Cn2ccc(-c3ccsc3)n2)cs1 | -2 | 0.38 |
| C[C@H]1C[C@@H](C(=O)O)CCN1Cc1cc2ccccc2o1 | -3 | 0.63 |
| Cc1cc(NC(=O)N2CC[C@H](O)[C@@H](O)C2)n(Cc2ccccc2Cl)n1 | -15 | 2.88 |
| CCc1cccc2c(C3=CCN(C(=O)Nc4cn[nH]c4)CC3)c[nH]c12 | -8 | 1.44 |
| O=C(NCCCN1CCOCC1)C1C2CCCC21 (stereo not given) | 38 | -5.54 |
| COc1ccc(-c2nnc3n2[C@H](C(=O)Nc2ccccc2OC(F)F)CC(O)=N3)cc1 | 31 | -3.55 |
| O=C(COc1ccc(Cl)cc1Br)Nn1cnc2ccccc2c1=O | -4 | 0.42 |
| Cc1ccc(-c2ocnc2C(=O)Nc2ccc(Cl)cc2)s1 | -3 | 0.54 |
| CCOC1CC(O)C12CCN(C(=O)Cn1ccc(C)cc1=O)CC2 (stereo not given) | 4 | -0.45 |
| O=C(NC1CCCC1n1ccnc1)C1CCCCC1 (stereo not given) | 3 | -0.39 |
| CCn1c(C)cc(C(=O)CN2CCNC(=O)C2)c1C | -12 | 1.11 |
| Cc1cc(Br)cc(C(=O)N2CCCn3nnnc32)c1 | -5 | 0.61 |
| Cc1cc2c(cc1C)N(CC(=O)Nc1ccccc1)C(=O)[C@H]1CCCC1=N2 | -2 | 0.3 |
| CCN1CCCc2cc(CN(C(=O)Nc3ccc(C)c(C)c3)C3CCCC3)ccc21 | -1 | 0.1 |
| Cc1nn(CC2CCOCC2)c(=O)n1C | -16 | 2.34 |
| O=C(CCS(=O)(=O)c1ccc(Cl)cc1)Nc1nc(-c2ccc3c(c2)OCCO3)cs1 | 0 | 0.09 |
| Cc1cccc(CNc2cc(S(=O)(=O)N3CCOCC3)ccc2N2CCCC2)c1 | -10 | 1.16 |

| Structure (SMILES) | % Inhibition [%] | Z score |
| --- | --- | --- |
| O=C(O)[C@@H]1CN(c2cc(C3CC3)ncn2)C[C@H]1C(F)(F)F | 6 | -1.12 |
| COc1cccc([C@H]2CC(O)=Nc3nc(N)sc32)c1 | 1 | -0.16 |
| O=C(NC[C@H]1CCCO1)c1ccc(-c2ncnc3ccsc23)cc1 | -7 | 1.37 |
| Cc1ccc(C2(CNC(=O)C[C@H](NC(=O)OC(C)(C)C)C3CC3)CC2)c(C)c1 | -13 | 1.97 |
| Cc1ccc(CCN[C@@H](C)C2CCOCC2)cn1 | -5 | 0.42 |
| Cc1nc(O)c(Cl)c(N2CCC(N3CCOCC3)CC2)n1 | -4 | 0.48 |
| Cn1c(-c2cnn(CC3CC3)c2)cc2ccccc21 | -3 | 0.53 |
| CCOc1ccc(CNC(=O)CN2C(=O)[C@@H]3CCCCN3c3ccc(C(=O)N4CCCC4)cc32)cc1 | -7 | 1.17 |
| Cc1ccc(-n2ncc(C(=O)NC3CCCCC3)c2C2CCN(C(=O)OC(C)(C)C)CC2)c(C)c1 | -16 | 1.57 |
| O=C(C#Cc1ccccc1)NCCc1cnccn1 | -5 | 0.7 |
| CCn1ccnc1[C@H]1OCCC[C@@H]1NC(=O)CCOCC(F)F | 15 | -1.87 |
| C(=C\c1ccco1)/CN(Cc1cccnc1)Cc1ccc2c(c1)OCO2 | 0 | -0.01 |
| COc1ccc(-c2ccc3c(ccn3CC(=O)Nc3cnn(C)n3)c2)cc1F | -9 | 1.11 |
| c1cn(Cc2ccc(CNc3nc(C4CC4)ns3)cc2)cn1 | -10 | 1.05 |
| CCCN(Cc1ccsc1)S(=O)(=O)c1cnn(C)c1 | -10 | 1.62 |
| COc1ccc(CCN(Cc2ccco2)C(=O)CN(C(=O)Nc2c(C)cccc2C)C(C)C)cc1OC | -5 | 0.86 |
| Cc1nc(CN2C(=O)c3ccccc3CS2(=O)=O)sc1C | 8 | -1.49 |
| Cn1cccc1C(=O)N1CCC[C@@]2(CO)CN(c3ncccn3)CC[C@H]12 | -16 | 3.45 |
| Clc1ccc(N2CCN(c3ccc(-c4nc(-c5ccccc5)no4)cn3)CC2)cc1 | -14 | 2.02 |
| N#Cc1ccc(S(=O)(=O)N2CCC[C@H](Oc3cnccn3)C2)cc1 | -2 | 0.3 |
| CC(C)n1nc(O)c2c(-c3cccc(OC(F)F)c3)c3sc(=O)[nH]c3nc21 | 0 | 0.02 |
| CNC(=O)C(C)(C)CN[C@H]1CC2(CCOCC2)Oc2ccccc21 | -16 | 2.14 |

| Structure (SMILES) | % Inhibition [%] | Z score |
| --- | --- | --- |
| COc1ccc(CN(C(=O)c2ccco2)c2nccs2)c(OC)c1 | 11 | -1.52 |
| Cn1cc(-c2cncc(CNC(=O)c3cnccn3)c2)cn1 | 8 | -1.05 |
| COc1ccccc1Nc1cc(Nc2ccccc2OC)n(S(=O)(=O)c2ccc(C)cc2)n1 | 30 | -3.43 |
| Cc1nsc(NC(=O)c2cc3c(s2)CCCCC3)n1 | -2 | 0.28 |
| COc1cccc(CC(=O)Nc2ccn(-c3ccc(C#N)cc3)n2)c1 | -3 | 0.5 |
| CCCCc1csc(C(=O)N2CC3CCC2C3)n1 (stereo not given) | -2 | 0.33 |
| COCCN(Cc1scnc1C)C(=O)CCc1cncc(C)c1 | 10 | -1.39 |
| Cc1cc(C(=O)NC[C@H]2CC[C@H](CO)CC2)c(O)cn1 | 0 | 0.03 |
| Cc1cnc(NC(=O)[C@@H]2CCCN[C@@H]2C2CC2)s1 | 2 | -0.41 |
| CN(C[C@H]1COCCO1)C(=O)c1cc(C#N)c[nH]1 | -29 | 2.66 |
| Cc1nnc([C@H](C)Nc2ccc3c(c2)OC(F)(F)O3)o1 | -12 | 1.13 |
| Cc1c[nH]c(CN2C[C@H](C(C)C)[C@@H](N)C2)c(C)c1=O | -14 | 1.24 |
| Cn1ccc(Nc2ccccc2NC(=O)COC[C@H]2CCCO2)n1 | -9 | 1.13 |
| O=C1NCCOCCCN(C(=O)Nc2ccccc2)[C@H]2CCC[C@@H]12 | 7 | -1.04 |
| O=C(CCc1cc2n(n1)CCCN(Cc1nccs1)C2)N1CCCC1 | 4 | -0.64 |
| Cc1nnc([C@@H]2CC3(CCN(C(=O)c4cccnc4)CC3)CN2CCc2ccccc2)o1 | -6 | 0.83 |
| Cc1ccnc(CNC(=O)N2CC(C)OC(C3CC3)C2)c1 (stereo not given) | -5 | 0.97 |
| Fc1ccccc1N1CCN(Cc2cc3n(n2)CCNC3)CC1 | 13 | -1.72 |
| CC(C)OC(=O)CCNC(=O)N[C@@H]1COC(=O)C1 | -8 | 0.99 |
| CC(C)[C@@H]1CN(C(=O)c2ccc(F)cn2)CCCN1CC1CC1 | -9 | 1 |
| COc1cccc(NC(=O)c2c(-c3cccnc3)nc3ccccc3c2-c2ccccc2)c1 | -9 | 1.16 |
| O=C(c1nccc2ccccc12)N1CC[C@@H]2CN(Cc3cccnc3)[C@@H]2C1 | -12 | 1.52 |

| Structure (SMILES) | % Inhibition [%] | Z score |
| --- | --- | --- |
| Cc1cnc(C(=O)NCC2CCN(Cc3cc4c(cc3Cl)OCO4)CC2)cn1 | -2 | 0.39 |
| COCc1ccc(CNc2cc(C)on2)cc1 | -12 | 1.82 |
| Cc1nc(C=Cc2cn(C3CCC3)nn2)sc1Br | -6 | 0.84 |
| COC[C@@H]1[C@H](C(=O)NCCC(C)C)CCC(=O)N1C | 8 | -1.07 |
| O=C(c1ccn(C2CCCCC2)n1)N1CCc2nc[nH]c(=O)c2C1 | -12 | 1.02 |
| Cn1cc(C(NC(=O)NC2CCCC2)[C@H]2C[C@H](O)C2)cn1 (stereo not given in full) | -9 | 1.71 |
| COc1cc(OC)cc(C(=O)N2CCN(C3=Nc4cc(C(F)(F)F)ccc4Oc4ccc(OC)cc43)C[C@@H]2C)c1 | 6 | -0.81 |
| O=C(NC[C@H]1CCCN(Cc2cncs2)C1)c1ccon1 | -2 | 0.28 |
| CCn1c2c(c3ccccc31)CN(C(=O)C1CCC1)CC2 | -11 | 1.11 |
| Cc1cc(NC(=O)NCCN2Cc3ccccc3OCC2=O)cs1 | -4 | 0.65 |
| NS(=O)(=O)C[C@H]1CCCN(C(=O)c2ccncc2C(F)(F)F)C1 | -21 | 2.22 |
| O=c1[nH]nc(-c2ccccc2)c2nc[nH]c12 | 25 | -2.82 |
| Cc1cc(C)n(CCCC(=O)N[C@@H](C)c2nc(-c3cccnc3)no2)n1 | 0 | 0.01 |
| Cc1cc(NCCc2ccns2)ncn1 | -6 | 1.17 |
| O=C1CC2(CCN(c3noc(-c4ccccc4)n3)CC2)CN1Cc1ccccc1 | -4 | 0.55 |
| Cc1nc2ccc(NC(=O)N[C@H]3CCCN(c4ccccc4F)C3)cn2n1 | -13 | 1.35 |
| COC1(CNC(=O)NCC(C)(C)C(C)C)CCOCC1 | -9 | 1.34 |
| CCN1CCN(C(=O)c2ccc(C)c(NS(=O)(=O)c3ccc(C)cc3)c2)CC1 | -21 | 2.46 |
| COc1cccc([C@@H]2Cn3nnc(-c4nc(-c5cccc(Cl)c5)no4)c3CO2)c1 | -25 | 2.27 |
